The supplement of paper PMC3334620
Whole data set: some 33,000 sequences, median “E-score (-0.5 to 0.5)” near -0.01, cut for the highest 2% near 0.26. The list shows a part of the results.

These sequences were tested against Ste12 (UniProt P13574) (assay: PBM E-score (8-mer binding enrichment) (E-score (-0.5 to 0.5)); higher = stronger / more preferred TF binding; most listed sequences are background and not binding sites). Conditions: protein concentration: 200 nM; construct: GST-DNA-binding domain.
Procedure: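 Universal 'all 10-mer' protein binding microarrays (Agilent AMADID 015681) probed with GST-tagged S. cerevisiae TFs (full-length or DBD) made by in vitro transcription/translation (PURExpress), about 100-200 nM. Bound TF was detected with fluorescent anti-GST. Each ungapped 8-mer (which stands for itself and its reverse complement) is scored by the PBM enrichment score (E-score), a modified Wilcoxon-Mann-Whitney statistic from -0.5 to +0.5, computed with the Universal PBM Analysis Suite. Scale: above 0.35 generally sequence-specific binding.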

Sequence | PBM E-score
ATTATGCG | 0.23
ATAGGATC | -0.0639
ACTGTGAG | 0.0709
CTATCACA | 0.0742
GCTTACCA | -0.0225
ACCTACTA | 0.0356
TTACCGAA | 0.276
CTTTTTTA | 0.181
CAACATAG | -0.0742
CAAACCTA | 0.0393
AGCATTCC | -0.158
ACTCTTGA | -0.146
GGGCATAA | 0.218
TCAATTAA | 0.153
GAACGTAC | -0.0959
ATAACTCA | 0.044
CTCTTTAA | -0.122
ACGCATCG | -0.0965
CATACGTA | 0.0491
GTGATCTA | -0.0995
ACCACATA | 0.0451
CCAAAAAA | 0.251
GCTCCCCC | -0.206
AGGCTGAT | -0.0857
GGAGCGAC | -0.0327

Sequence | PBM E-score
CGTTGGGC | -0.183
GAACTCTA | -0.0541
AACAAATA | 0.341
ATTACACG | -0.0414
CACACGAC | -0.0543
AAGTTGTG | 0.0449
CGGCATAC | -0.0825
AAAAACGT | 0.154
AGGCTTAC | -0.193
GCTAGGTA | -0.131
TCCCACGA | -0.0541
CCGGACTA | -0.00942
TAAACGCA | -0.0738
AGATGAAT | 0.0609
AGGGTAAG | 0.15
CAACCAAC | -0.2
TTCGGAAA | 0.209
ATTAGATA | -0.0411
AGCCTCCA | -0.0421
GAATTTCA | -0.0538
CTCATTGC | -0.117
CCAGGCAC | -0.124
CCCTCTCG | -0.0381
CTCTGCGC | -0.0429
AGTATTGC | -0.0341

Sequence | PBM E-score
GGTACAAC | 0.102
CTAGCCTA | -0.0508
CCTGACGA | 0.087
CGCCCTTC | -0.119
AGGACGGG | -0.116
TAGCGTAA | -0.108
CGCCTCAC | -0.00067
GCTAAAAC | 0.226
CAGAGTTC | -0.167
CCCGCTAG | -0.163
AGTGCCGA | -0.0685
GAGATAGC | -0.126
GAACTTCA | -0.0769
GGTGTCAA | -0.00826
AACGCTGT | -0.012
AGCCGCAC | -0.17
AACGTCAG | -0.155
CATCGTTC | -0.0708
CAAATGCG | 0.162
ATTGAACC | 0.0955
AATATCCC | 0.095
ATTAGGGC | -0.232
GAAGGAAA | 0.0147
GCAGTTAA | -0.0852
TCCTACCA | -0.131

Sequence | PBM E-score
ATTCCTTG | -0.136
ACATCTAC | 0.0372
GGGTTCGA | -0.226
TGAGGGCA | -0.153
GGGTCAAC | 0.0833
CCGGATTC | -0.0592
CTCCTACA | -0.0765
AACCTGGA | 0.0279
CCCCTCAG | -0.0536
CATACAAC | -0.0361
TGCTACAA | 0.0358
AACCACTT | 0.143
AGCTTCCC | -0.122
CAATTTAG | 0.118
CGGGTCGC | -0.0355
TAGGTAAA | 0.00121
TGTAGAAA | 0.136
TCTCATAA | 0.0315
AAGTCTAA | -0.012
ATTCGCGG | 0.0576
ACATCTCC | 0.0333
ATGCTCAC | -0.0518
CCTTCGCC | -0.0682
CTAATTAA | 0.117
GGACGGCC | -0.177

Sequence | PBM E-score
AACAATAT | 0.236
AGGGGAGC | -0.123
CACCGGAG | 0.0178
ACAAACCC | 0.0905
CGGTATAG | 0.0412
CATCCTTC | 0.0076
TACGCCCA | -0.0526
AAACAATT | 0.112
AAACGGTG | 0.133
CTTAATGC | -0.049
GGTAACAA | 0.264
CATACTAC | 0.0392
AGAAACGG | 0.0926
GCTGATTA | 0.0336
GACGCGTA | -0.0025
AGTACACG | -0.0744
CTGTTCCC | -0.118
CGGGGATC | -0.00199
GAAATCAC | 0.0714
AAAATTCT | 0.114
AGTCGCCG | -0.0311
AAGTTGTC | 0.107
CAGCTCGA | -0.00483
GGATGCTA | -0.109
ATGTCCCA | -0.176

Sequence | PBM E-score
ATTCCAAG | -0.0778
CCGCTACC | 0.028
AGACACTA | 0.0233
ACCCAAAT | 0.172
GATAGGGA | -0.197
AATCATAA | 0.0803
TAAGTGCA | -0.104
ATGTGGTC | -0.0153
ACTCCTGA | 0.0449
AACCACGT | -0.0693
GATAGATC | -0.194
CCAGTTGA | -0.253
GAGAAAGC | 0.0134
CACTCGGA | 0.0339
ACCCCGCT | 0.203
TACCTGCA | -0.169
ATAGGAAA | 0.0645
AGTCCTTC | -0.225
GCCAAACC | -0.00579
ATCCTATC | -0.0507
GTGAGACA | 0.256
AGTCAGTA | 0.0823
ATAATTTC | -0.0332
GCTCCTCA | -0.226
TATACTCA | -0.00467

Sequence | PBM E-score
ACGAACCC | -0.0779
CCGAAGAA | -0.026
GAGCTAAC | -0.0165
AGTCAGTC | -0.202
AATTCCGG | 0.00194
ACCCCAAT | -0.163
GCCGGCCA | -0.0663
ACTCAACC | -0.0105
CAAAGCAA | 0.24
CGAGCGGC | -0.00175
CGATGCCG | -0.12
CCCATCCA | 0.0595
AGAACGCA | -0.153
TCGATCAA | -0.101
TGAGCAAA | 0.0657
AGAATTGC | 0.102
CAAGCTGC | -0.0394
CCAAGGAC | -0.175
CAATAACA | 0.0401
AGTGCTAC | -0.32
CGTGCTTA | 0.0934
ACTATTCT | 0.0411
